# Data taken from a collection of fitness landscapes (doi:10.1016/j.celrep.2020.107928).
# Over roughly 81,000 sequences, “one-hybrid fitness for binding parS DNA” has its median near -0.17; the highest 2% begin near 0.51. The list shows a part of the results.
# B1: Caulobacter ParB omega fusion; a variant is named by its letters at X, in order, B8GW30 (parent)
# chain: MESVVVGEPGMSEGRRGLGRGLSALLGEVDAAPAQAPGEQLGGSREAPIEILQRNPDQPRRTFREEDLEDLSNSIREKGVLQPILVRPSPDTAGEYQIVAGERAWRAAQRAGLKTVPIMVRELDDLAVLEIGIIENVQRADLNVLEEALSYKVLMEKFERTQENIAQTIGKSXSHVANXMRLLXLPDEVQSYLVSGELTAXHARAIAAAADPVALAKQIIEGGLSVRETEALARKAPNLSAGKSKGGRPPRVKDTDTQALESDLSSVLGLDVSIDHRGSTGTLTITYATLEQLDDLCNRLTRGI
# Variants of: B1
# Assay: one-hybrid fitness for binding parS DNA (scaled: cognate 1, non-cognate 0); higher = stronger binding
# Details: with parS DNA site
# How it was run: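 Values were rescaled so that cognate is 1 and non-cognate is 0. Each is a fitness, the log change in a variant's read ratio to wild type from Illumina reads of plasmids before and after selection, with three replicate libraries pooled and variants under 10 reads dropped. Selection of the Caulobacter ParB libraries, four specificity codons randomised, used E. coli USO with a HIS3 reporter, site 19 bp from the promoter, on M9-minus-histidine with 0.1 mM IPTG and 5 mM 3-AT for 48 hours at 37°C.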
row,Variant,one-hybrid fitness for binding parS DNA
1,WTAS,≤ 0.2
2,SKPS,≤ 0.2
3,SSSV,≤ 0.2
4,NCSG,≤ 0.2
5,KWMV,≤ 0.2
6,KLLI,≤ 0.2
7,PMTI,≤ 0.2
8,VSCI,≤ 0.2
9,TESE,≤ 0.2
10,PVEF,≤ 0.2
11,RPYP,≤ 0.2
12,HQTE,≤ 0.2
13,STKA,≤ 0.2
14,VWRR,≤ 0.2
15,NTSL,≤ 0.2
16,RDAQ,≤ 0.2
17,EDMY,≤ 0.2
18,PGRP,≤ 0.2
19,LRSL,≤ 0.2
20,RHIM,≤ 0.2
21,HEGW,≤ 0.2
22,ELVR,≤ 0.2
23,IIRY,≤ 0.2
24,CVTC,≤ 0.2
25,QHLQ,≤ 0.2

row,Variant,one-hybrid fitness for binding parS DNA
1,YCAQ,≤ 0.2
2,VNKV,≤ 0.2
3,QSTY,≤ 0.2
4,YTGR,≤ 0.2
5,QIPS,≤ 0.2
6,HVKF,≤ 0.2
7,TIPL,≤ 0.2
8,QRGF,≤ 0.2
9,RYVE,≤ 0.2
10,RHQY,0.424
11,CKSE,≤ 0.2
12,SVIY,≤ 0.2
13,INVC,≤ 0.2
14,QILY,≤ 0.2
15,TKNR,≤ 0.2
16,FKAR,≤ 0.2
17,TWTI,≤ 0.2
18,PPFM,≤ 0.2
19,NITK,≤ 0.2
20,SEPM,≤ 0.2
21,QILS,≤ 0.2
22,FCHR,≤ 0.2
23,VLCG,≤ 0.2
24,WCNY,≤ 0.2
25,RMVP,0.206

row,Variant,one-hybrid fitness for binding parS DNA
1,RRMS,0.704
2,SVFF,≤ 0.2
3,LILM,≤ 0.2
4,TLSR,≤ 0.2
5,TTAI,≤ 0.2
6,TGYV,≤ 0.2
7,YVYM,≤ 0.2
8,HYTT,≤ 0.2
9,WLIK,≤ 0.2
10,IEER,≤ 0.2
11,QYGI,≤ 0.2
12,LDAS,≤ 0.2
13,LPRV,≤ 0.2
14,TRGN,≤ 0.2
15,VITK,≤ 0.2
16,RYQQ,≤ 0.2
17,LVQS,≤ 0.2
18,RKHI,≤ 0.2
19,EHEF,≤ 0.2
20,NAAQ,≤ 0.2
21,CSHR,≤ 0.2
22,NLVT,≤ 0.2
23,HNWD,≤ 0.2
24,KLVQ,≤ 0.2
25,LNAA,≤ 0.2

row,Variant,one-hybrid fitness for binding parS DNA
1,KATR,≤ 0.2
2,QRIG,≤ 0.2
3,ETEY,≤ 0.2
4,RWQS,0.868
5,IADY,≤ 0.2
6,TKRI,≤ 0.2
7,EIDT,≤ 0.2
8,HGFS,≤ 0.2
9,CSSY,≤ 0.2
10,ITSE,≤ 0.2
11,PNNC,≤ 0.2
12,QIQC,≤ 0.2
13,TVKV,≤ 0.2
14,PFIY,≤ 0.2
15,NCAR,≤ 0.2
16,RGMN,≤ 0.2
17,GNYI,≤ 0.2
18,GDHK,≤ 0.2
19,PNVG,≤ 0.2
20,DAIG,≤ 0.2
21,PWFC,≤ 0.2
22,GQTR,≤ 0.2
23,TYDR,≤ 0.2
24,AVFT,≤ 0.2
25,SWFV,≤ 0.2

row,Variant,one-hybrid fitness for binding parS DNA
1,GTHD,≤ 0.2
2,HRMC,0.225
3,ELTR,≤ 0.2
4,KQGS,≤ 0.2
5,ACET,≤ 0.2
6,IDVW,≤ 0.2
7,SGFS,≤ 0.2
8,VLLV,≤ 0.2
9,FFAT,≤ 0.2
10,RQEG,0.89
11,TDGT,≤ 0.2
12,VGNR,≤ 0.2
13,YMNM,≤ 0.2
14,RDLF,≤ 0.2
15,AHPC,≤ 0.2
16,QKTD,≤ 0.2
17,SSRM,≤ 0.2
18,RFSD,≤ 0.2
19,FWSR,≤ 0.2
20,NPSD,≤ 0.2
21,TSMW,≤ 0.2
22,VVHV,≤ 0.2
23,VIHR,≤ 0.2
24,EWHS,≤ 0.2
25,MHFR,≤ 0.2

row,Variant,one-hybrid fitness for binding parS DNA
1,TCYC,≤ 0.2
2,VSKR,≤ 0.2
3,APTT,≤ 0.2
4,QLKS,≤ 0.2
5,ARPD,≤ 0.2
6,RVMC,0.95
7,VTCG,≤ 0.2
8,PHHI,≤ 0.2
9,RLRP,≤ 0.2
10,MGNY,≤ 0.2
11,QTDD,≤ 0.2
12,SNRV,≤ 0.2
13,RDCM,≤ 0.2
14,DGVY,≤ 0.2
15,KCVR,≤ 0.2
16,MYVR,≤ 0.2
17,NLLV,≤ 0.2
18,KVEH,≤ 0.2
19,CHAD,≤ 0.2
20,VSYT,≤ 0.2
21,FHSR,≤ 0.2
22,QDCF,≤ 0.2
23,MYKY,≤ 0.2
24,CCLG,≤ 0.2
25,RIEG,0.771

row,Variant,one-hybrid fitness for binding parS DNA
1,LHPY,≤ 0.2
2,VSEP,≤ 0.2
3,WAFS,≤ 0.2
4,IVAS,≤ 0.2
5,NAKV,≤ 0.2
6,SNQW,≤ 0.2
7,CDCM,≤ 0.2
8,DRCT,≤ 0.2
9,ARHV,≤ 0.2
10,RFEK,≤ 0.2
11,TDCS,≤ 0.2
12,MLRT,≤ 0.2
13,DVRY,≤ 0.2
14,WDPE,≤ 0.2
15,TPDK,≤ 0.2
16,VRVA,≤ 0.2
17,GPCM,≤ 0.2
18,HHAP,≤ 0.2
19,PADS,≤ 0.2
20,LSQT,≤ 0.2
21,NRCT,≤ 0.2
22,AANV,≤ 0.2
23,KCEF,≤ 0.2
24,VKTL,≤ 0.2
25,IVLP,≤ 0.2

row,Variant,one-hybrid fitness for binding parS DNA
1,PVAD,≤ 0.2
2,EMGR,≤ 0.2
3,MTQV,≤ 0.2
4,DPAQ,≤ 0.2
5,PAGA,≤ 0.2
6,LFGL,≤ 0.2
7,TRKA,≤ 0.2
8,KPKG,≤ 0.2
9,TLMA,≤ 0.2
10,YSMC,≤ 0.2
11,QTLV,≤ 0.2
12,MRSW,≤ 0.2
13,RNVC,0.599
14,QCWF,≤ 0.2
15,RPSD,≤ 0.2
16,TGRW,≤ 0.2
17,QGPN,≤ 0.2
18,HYSC,≤ 0.2
19,EACC,≤ 0.2
20,QSND,≤ 0.2
